# Measurements as given in the supplement of paper PMC8728848.
# Some of the results follow.
# B1: F17-L (Escherichia coli) (protein)
# chain: GPDDYVPSQIAVNTSTLPGVVIGPADAHTYPRVIGELAGTSNQYVFNGGAIALMRGKFTPALPKIGSITYTFHQGNSRDSSDFDIYDIGVSGLGIIIGMAGYWPATPLVPINSSGIYIDPVGANTNPNTYNGATASFGARLFVAFVATGRLPNGYITIPTRQLGTILLEAKRTSLNNKGLTAPVMLNGGRIQVQSQTHHHHHH
# How the values were obtained:
# Test in all cases: glycan array binding signal (z-score within array); higher = stronger binding
# Details in all cases: glycan notation: IUPAC condensed, linker removed
# [1] = target: Fuc(a1-2)[GalNAc(a1-3)]Gal(b1-4)Glc
# In short: (§1)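 From the Consortium for Functional Glycomics database, 3228 arrays were curated, keeping only those whose protein sequence was available. Binding is given as a within-array Z-score averaged across arrays sharing a protein sequence and across linkers. Negative Z-scores can be read as non-binding.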
# [2] = target: Fuc(a1-2)[GalNAc(a1-3)]Gal(b1-4)GlcNAc
# In short: as §1
# [3] = target: Fuc(a1-2)[GalNAc(a1-3)]Gal(b1-4)GlcNAc(b1-2)Man
# In short: as §1
# [4] = target: Fuc(a1-2)[GalNAc(a1-3)]Gal(b1-4)GlcNAc(b1-2)Man(a1-3)[Fuc(a1-2)[GalNAc(a1-3)]Gal(b1-4)GlcNAc(b1-2)Man(a1-6)]Man(b1-4)GlcNAc(b1-4)GlcNAc
# In short: as §1
# [5] = target: Fuc(a1-2)[GalNAc(a1-3)]Gal(b1-4)GlcNAc(b1-2)Man(a1-3)[Fuc(a1-2)[GalNAc(a1-3)]Gal(b1-4)GlcNAc(b1-2)Man(a1-6)]Man(b1-4)GlcNAc(b1-4)[Fuc(a1-6)]GlcNAc
# In short: as §1
# [6] = target: Fuc(a1-2)[GalNAc(a1-3)]Gal(b1-4)GlcNAc(b1-3)Gal(b1-4)GlcNAc
# In short: as §1
# [7] = target: Fuc(a1-2)[GalNAc(a1-3)]Gal(b1-4)GlcNAc(b1-3)Gal(b1-4)GlcNAc(b1-3)Gal(b1-4)GlcNAc
# In short: as §1
# [8] = target: Fuc(a1-2)[GalNAc(a1-3)]Gal(b1-4)GlcNAc(b1-3)GalNAc
# In short: as §1
# [9] = target: Fuc(a1-2)[GalNAc(a1-3)]Gal(b1-4)GlcNAc(b1-3)[Fuc(a1-2)[GalNAc(a1-3)]Gal(b1-4)GlcNAc(b1-6)]GalNAc
# In short: as §1
# [10] = target: Fuc(a1-2)[GalNAc(a1-3)]Gal(b1-4)GlcNAc(b1-6)GalNAc
# In short: as §1
# [11] = target: Fuc(a1-2)[GalNAc(a1-3)]Gal(b1-4)[Fuc(a1-3)]GlcNAc
# In short: as §1
# [12] = target: Fuc(a1-2)[GalNAc(a1-3)]Gal(b1-4)[Fuc(a1-3)]GlcNAc(b1-3)GalNAc
# In short: as §1
# [13] = target: Fuc(a1-2)[GalNAc(a1-4)]Gal(b1-4)GlcNAc
# In short: as §1
# [14] = target: Fuc(a1-2)[GalNAc(b1-3)]Gal
# In short: as §1
# [15] = target: Fuc(a1-3)GlcNAc
# In short: as §1
# [16] = target: Fuc(a1-3)[Gal(b1-4)]Glc6S
# In short: as §1
# [17] = target: Fuc(a1-3)[Gal(b1-4)]GlcNAc
# In short: as §1
# [18] = target: Fuc(a1-3)[Gal(b1-4)]GlcNAc(b1-2)Man
# In short: as §1
# [19] = target: Fuc(a1-3)[Gal(b1-4)]GlcNAc(b1-2)Man(a1-3)[Fuc(a1-3)[Gal(b1-4)]GlcNAc(b1-2)Man(a1-6)]Man(b1-4)GlcNAc(b1-4)GlcNAc
# In short: as §1
# [20] = target: Fuc(a1-3)[Gal(b1-4)]GlcNAc(b1-2)Man(a1-3)[Fuc(a1-3)[Gal(b1-4)]GlcNAc(b1-2)Man(a1-6)]Man(b1-4)GlcNAc(b1-4)[Fuc(a1-6)]GlcNAc
# In short: as §1
# [21] = target: Fuc(a1-3)[Gal(b1-4)]GlcNAc(b1-3)Gal(b1-3)[Fuc(a1-4)]GlcNAc
# In short: as §1
# [22] = target: Fuc(a1-3)[Gal(b1-4)]GlcNAc(b1-3)GalNAc
# In short: as §1
# [23] = target: Fuc(a1-3)[Gal(b1-4)]GlcNAc(b1-4)Gal(b1-4)[Fuc(a1-3)]GlcNAc
# In short: as §1
# [24] = target: Fuc(a1-3)[Gal(b1-4)]GlcNAc(b1-4)Gal(b1-4)[Fuc(a1-3)]GlcNAc(b1-4)Gal(b1-4)[Fuc(a1-3)]GlcNAc
# In short: as §1
# [25] = target: Fuc(a1-3)[Gal(b1-4)]GlcNAc(b1-6)GalNAc
# In short: as §1
# [26] = target: Fuc(a1-3)[Gal(b1-4)]GlcNAc(b1-6)[Gal(b1-3)GlcNAc(b1-3)]Gal(b1-4)Glc
# In short: as §1
# [27] = target: Fuc(a1-3)[Gal(b1-4)]GlcNAc6S
# In short: as §1
# [28] = target: Fuc(a1-3)[Gal3S(b1-4)]Glc
# In short: as §1
# [29] = target: Fuc(a1-3)[Gal3S(b1-4)]GlcNAc
# In short: as §1
# [30] = target: Fuc(a1-3)[Gal3S(b1-4)]GlcNAc6S
# In short: as §1
# [31] = target: Fuc(a1-3)[GalNAc(b1-4)]GlcNAc
# In short: as §1
# [32] = target: Fuc(a1-3)[GalNAc(b1-4)]GlcNAc6S
# In short: as §1
# [33] = target: Fuc(a1-4)GlcNAc
# In short: as §1
# [34] = target: Fuc(b1-3)GlcNAc
# In short: as §1
# [35] = target: Gal(a1-2)Gal
# In short: as §1
# [36] = target: Gal(a1-3)Gal
# In short: as §1
# [37] = target: Gal(a1-3)Gal(b1-3)GlcNAc
# In short: as §1
# [38] = target: Gal(a1-3)Gal(b1-3)GlcNAc(b1-2)Man
# In short: as §1
# [39] = target: Gal(a1-3)Gal(b1-3)GlcNAc(b1-2)Man(a1-3)[Gal(a1-3)Gal(b1-3)GlcNAc(b1-2)Man(a1-6)]Man(b1-4)GlcNAc(b1-4)GlcNAc
# In short: as §1
# [40] = target: Gal(a1-3)Gal(b1-3)GlcNAc(b1-3)GalNAc
# In short: as §1
# [41] = target: Gal(a1-3)Gal(b1-3)GlcNAc(b1-6)GalNAc
# In short: as §1
# [42] = target: Gal(a1-3)Gal(b1-3)[Fuc(a1-4)]GlcNAc(b1-2)Man(a1-3)[Gal(a1-3)Gal(b1-3)[Fuc(a1-4)]GlcNAc(b1-2)Man(a1-6)]Man(b1-4)GlcNAc(b1-4)GlcNAc
# In short: as §1
# [43] = target: Gal(a1-3)Gal(b1-4)Glc
# In short: as §1
# [44] = target: Gal(a1-3)Gal(b1-4)GlcNAc
# In short: as §1
# [45] = target: Gal(a1-3)Gal(b1-4)GlcNAc(b1-2)Man
# In short: as §1
binder,measurement,setting,value
B1,glycan array binding signal (z-score),[1],-0.051
same,glycan array binding signal (z-score),[2],-0.114
same,glycan array binding signal (z-score),[3],-0.014
same,glycan array binding signal (z-score),[4],-0.152
same,glycan array binding signal (z-score),[5],-0.08
same,glycan array binding signal (z-score),[6],-0.177
same,glycan array binding signal (z-score),[7],-0.015
same,glycan array binding signal (z-score),[8],0.026
same,glycan array binding signal (z-score),[9],-0.112
same,glycan array binding signal (z-score),[10],-0.121
same,glycan array binding signal (z-score),[11],-0.083
same,glycan array binding signal (z-score),[12],-0.046
same,glycan array binding signal (z-score),[13],-0.152
same,glycan array binding signal (z-score),[14],-0.064
same,glycan array binding signal (z-score),[15],-0.198
same,glycan array binding signal (z-score),[16],-0.015
same,glycan array binding signal (z-score),[17],-0.031
same,glycan array binding signal (z-score),[18],0.069
same,glycan array binding signal (z-score),[19],-0.072
same,glycan array binding signal (z-score),[20],-0.109
same,glycan array binding signal (z-score),[21],-0.204
same,glycan array binding signal (z-score),[22],-0.194
same,glycan array binding signal (z-score),[23],-0.163
same,glycan array binding signal (z-score),[24],-0.066
same,glycan array binding signal (z-score),[25],-0.091
same,glycan array binding signal (z-score),[26],0.021
same,glycan array binding signal (z-score),[27],-0.058
same,glycan array binding signal (z-score),[28],-0.092
same,glycan array binding signal (z-score),[29],-0.117
same,glycan array binding signal (z-score),[30],0.056
same,glycan array binding signal (z-score),[31],-0.094
same,glycan array binding signal (z-score),[32],-0.121
same,glycan array binding signal (z-score),[33],-0.059
same,glycan array binding signal (z-score),[34],-0.089
same,glycan array binding signal (z-score),[35],-0.191
same,glycan array binding signal (z-score),[36],-0.169
same,glycan array binding signal (z-score),[37],-0.069
same,glycan array binding signal (z-score),[38],-0.155
same,glycan array binding signal (z-score),[39],-0.086
same,glycan array binding signal (z-score),[40],-0.023
same,glycan array binding signal (z-score),[41],-0.22
same,glycan array binding signal (z-score),[42],0.699
same,glycan array binding signal (z-score),[43],0.486
same,glycan array binding signal (z-score),[44],-0.176
same,glycan array binding signal (z-score),[45],0.391
